Experimental data published in the supplement of paper PMC4967469.

Tests used:
Assay in all cases: Viability of human cancer cell lines after 72 h of drug (GDSC screen)
BX-912 = compound: O=C(Nc1cccc(Nc2ncc(Br)c(NCCc3cnc[nH]3)n2)c1)N1CCCC1 [BX-912]; conditions: top dose 10.24 µM; top dose inferred
Procedure: (§1)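 Human cancer cell lines in 384-well plates, medium with 10% serum, drug for 72 h over a 256-fold dose range (nine 2-fold or five 4-fold steps up to the top dose). Adherent lines were fixed and stained with the nucleic acid dye Syto60, suspension lines read with resazurin; signal relative to control wells, capped at 0 and 100%. One two-parameter sigmoid per drug and line, fitted in a mixed model over all curves with the slope shared within a line.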

Masitinib = compound: Cc1ccc(NC(=O)c2ccc(CN3CCN(C)CC3)cc2)cc1Nc1nc(-c2cccnc2)cs1 [Masitinib]; conditions: top dose 20 µM
Procedure: as §1

Tamoxifen = compound: CC/C(=C(\c1ccccc1)c1ccc(OCCN(C)C)cc1)c1ccccc1 [Tamoxifen]; conditions: top dose 5 µM
Procedure: as §1

Bleomycin = compound: Cc1c(N)nc([C@H](CC(N)=O)NC[C@H](N)C(N)=O)nc1C(=O)N[C@H](C(=O)N[C@H](C)[C@@H](O)[C@H](C)C(=O)N[C@H](C(=O)NCCc1nc(-c2nc(C(=O)NCCC[S+](C)C)cs2)cs1)[C@@H](C)O)[C@@H](OC1OC(CO)C(O)C(O)C1OC1OC(CO)C(O)C(OC(N)=O)C1O)c1cnc[nH]1 [Bleomycin]
Procedure: as §1

HG-5-88-01 = compound: COc1cc(N2CCC(C(N)=O)CC2)ccc1Nc1nc(N)c(Cl)c(Nc2ccccc2S(=O)(=O)C(C)C)n1 [HG-5-88-01]; conditions: top dose 10 µM; top dose inferred
Procedure: as §1

LAQ824 = compound: O=C(/C=C/c1ccc(CN(CCO)CCc2c[nH]c3ccccc23)cc1)NO [LAQ824]; conditions: top dose 1.024 µM; top dose inferred
Procedure: as §1

Elesclomol = compound: CN(NC(=O)CC(=O)NN(C)C(=S)c1ccccc1)C(=S)c1ccccc1 [Elesclomol]; conditions: top dose 0.2 µM; top dose inferred
Procedure: as §1

NSC-87877 = compound: O=S(=O)(O)c1ccc2cc(N=Nc3cc(S(=O)(=O)O)c4cccnc4c3O)ccc2c1 [NSC-87877]; conditions: top dose 16 µM; top dose inferred
Procedure: as §1

OSI-930 = compound: O=C(Nc1ccc(OC(F)(F)F)cc1)c1sccc1NCc1ccnc2ccccc12 [OSI-930]; conditions: top dose 10.24 µM
Procedure: as §1

VNLG/124 = compound: CCCC(=O)OCc1ccc(OC(=O)/C=C(C)/C=C/C=C(C)/C=C/C2=C(C)CCCC2(C)C)cc1 [VNLG/124]; conditions: top dose 5.12 µM; top dose inferred
Procedure: as §1

[1] = top dose 50 µM, screen: GDSC drug entry 1378, top dose inferred
[2] = top dose 64 µM, screen: GDSC drug entry 190

| Cell Line | AUC (BX-912) | pIC50 (BX-912) | AUC (Masitinib) | pIC50 (Masitinib) | AUC (Tamoxifen) | pIC50 (Tamoxifen) | AUC (Bleomycin; [1]) | pIC50 (Bleomycin; [1]) | AUC (Bleomycin; [2]) | pIC50 (Bleomycin; [2]) | AUC (HG-5-88-01) | pIC50 (HG-5-88-01) | AUC (LAQ824) | pIC50 (LAQ824) | AUC (Elesclomol) | pIC50 (Elesclomol) | AUC (NSC-87877) | pIC50 (NSC-87877) | AUC (OSI-930) | pIC50 (OSI-930) | AUC (VNLG/124) | pIC50 (VNLG/124) |
| --- | --- | --- | --- | --- | --- | --- | --- | --- | --- | --- | --- | --- | --- | --- | --- | --- | --- | --- | --- | --- | --- | --- |
| LB831-BLC (bladder, adherent) | 0.885 | < 4.99 | 0.947 | < 4.70 | 0.985 | < 5.30 | 0.687 | 4.97 | 0.628 | 5.04 | 0.966 | < 5.00 | 0.584 | 6.96 | 0.645 | 7.50 | 0.987 | < 4.80 | 0.98 | < 4.99 | 0.985 | < 5.29 |
| EW-11 (Ewing sarcoma, adherent) | 0.769 | 5.30 | 0.87 | < 4.70 | 0.921 | < 5.30 | 0.899 | < 4.30 | 0.549 | 5.25 | 0.566 | 6.00 | 0.468 | 7.29 | 0.353 | 8.36 | 0.953 | < 4.80 | 0.927 | < 4.99 | 0.885 | < 5.29 |
| GRANTA-519 (B-cell lymphoma, suspension) | 0.859 | 5.14 | 0.876 | 4.79 | 0.989 | < 5.30 | 0.826 | 4.58 | 0.584 | 5.18 | 0.989 | < 5.00 | 0.562 | 7.03 | 0.928 | < 6.70 | 0.988 | < 4.80 | 0.973 | < 4.99 | 0.991 | < 5.29 |
| CHSA0011 (chondrosarcoma, adherent) | 0.813 | 5.07 | 0.961 | < 4.70 | 0.961 | < 5.30 | 0.416 | 5.78 | 0.813 | 4.27 | 0.831 | < 5.00 | 0.768 | 6.26 | 0.738 | 7.10 | 0.978 | < 4.80 | 0.973 | < 4.99 | 0.956 | < 5.29 |
| L-428 (Hodgkin lymphoma, suspension) | 0.981 | < 4.99 | 0.953 | < 4.70 | 0.99 | < 5.30 | 0.895 | 4.32 | 0.895 | 4.21 | 0.969 | < 5.00 | 0.517 | 7.15 | 0.895 | 6.71 | 0.986 | < 4.80 | 0.961 | < 4.99 | 0.989 | < 5.29 |
| NB14 (neuroblastoma, adherent) | 0.91 | < 4.99 | 0.907 | < 4.70 | 0.983 | < 5.30 | 0.606 | 5.22 | 0.715 | 4.81 | 0.619 | 5.88 | 0.429 | 7.38 | 0.314 | 8.41 | 0.988 | < 4.80 | 0.987 | < 4.99 | 0.987 | < 5.29 |

pIC50: −log10 of the molar value. Lines with a small IC50 respond at low doses; a limit (>, <) means that the fit lies beyond the doses tested. The AUC spans the tested range (256-fold, ending at the top dose) of the same fit; it is 1 without any effect and falls as sensitivity rises. For part of these data: The top dose, if marked as inferred, was derived from the fitted curves, not read from the paper. For part of these data: An entry number marks a drug with two screens in the source, which often give different values.
